Source: the supplement of paper PMC9334596
“And” between values parts separate entries of the source, which are not always exact repeats. Identical values can stand only once. Over roughly 5,300 compounds, “PER2::LUC luminescence relative to vehicle control” has its median near 0.96; the highest 2% begin near 1.3. The list shows a part of the results.

Test system: mPer2Luc MEF
Test: PER2::LUC luminescence relative to vehicle control (fold of vehicle); higher = higher PER2::LUC reporter signal
Conditions: 10 µM
Method in brief: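 The reported values are PER2::LUC luminescence as fold of vehicle control in mouse embryonic fibroblasts carrying the mPer2Luc reporter. Cells were seeded at ~3000 per well in 384-well plates in DMEM with 10% FBS at 37 °C and 5% CO2, and compounds were added at 10 μM 48 h later. ONE-Glo luminescence was read 24 h and 30 h after treatment.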

SMILES	PER2::LUC luminescence (time after treatment 24 h)	PER2::LUC luminescence (time after treatment 30 h)
Cl[C@H]1[C@H](Cl)[C@@H](Cl)[C@@H](Cl)[C@H](Cl)[C@H]1Cl	1.06	0.843
CC1(C)C(C=C(Cl)c2ccc(Cl)cc2)C1C(=O)OC(C#N)c1ccc(F)c(Oc2ccccc2)c1 (configuration not stated)	0.944	0.997
Oc1ccc(Cl)cc1Cc1cc(Cl)ccc1O	0.995	0.95
NC(=O)CN1CC(c2ccccc2)CC1=O (configuration not stated)	1	0.907
CC(O)CN1CCN(CC(=O)[O-])CCN(CC(=O)[O-])CCN(CC(=O)[O-])CC1.[Gd+3] (configuration not stated)	1.04	0.84
CC(C)NC1CCn2c(=O)[nH]c3cccc(c32)C1O (configuration not stated)	1.03	0.954
C[N@+]1(CC2CC2)CC[C@]23c4c5ccc(O)c4O[C@H]2C(=O)CC[C@@]3(O)[C@H]1C5	0.996	1.02
Cc1ncsc1CCCl	1.02	0.91
CCC1(c2ccc(N)cc2)CCC(=O)NC1=O (racemic)	0.88	1.04
CNC1CC(c2ccc(Cl)c(Cl)c2)c2ccccc21 (configuration not stated)	0.674	0.682
CCCCCCC(C)(C)c1ccc([C@@H]2C[C@H](O)CC[C@H]2CCCO)c(O)c1	0.824	0.966
CCCn1c(=O)c2[nH]c(C3CCCC3)nc2n(CCCOC(=O)c2ccc(S(=O)(=O)F)cc2)c1=O	0.904	1.01
CCN1CCN(C(=O)Cc2ccc(Nc3ncc(F)c(Nc4ccc(C(=O)Nc5ccccc5Cl)cc4)n3)cc2)CC1	0.472	0.586
CC(O)(CS(=O)(=O)c1ccc(F)cc1)C(=O)Nc1ccc(C#N)c(C(F)(F)F)c1 (configuration not stated)	0.939	0.85
CN1CCc2cc3c(cc2C1C1OC(=O)c2c1ccc1c2OCO1)OCO3 (single isomer, unassigned; (+))	1.06	1.05
CCOC(=O)c1cncn1[C@H](C)c1ccccc1	1.05	1.04
CNC(=O)Oc1cccc2ccccc12	1.06	0.905
CC([C@H](O)c1ccccc1)N(C)C (single isomer, unassigned; (-))	0.958	0.965
C=CCc1ccc(OC)cc1	0.993	0.968
NCC1(CC(=O)O)CCCCC1	1.04 and 0.952	0.954 and 1
COc1cc2ccc(=O)oc2c2ccoc12	0.633	0.662
O=c1cccc2n1C[C@@H]1CNC[C@H]2C1	1.03 and 1.01	1.01 and 0.906

SMILES	PER2::LUC luminescence (time after treatment 24 h)	PER2::LUC luminescence (time after treatment 30 h)
CC(N)C(O)c1ccccc1 (configuration not stated)	0.924	0.931
CC1(C)C(=O)[C@@H]2O[C@@H]2[C@@]2(C)C1C[C@@H](O)[C@]1(C)C2CC[C@@]2(C)[C@H](c3ccoc3)OC(=O)C3OC321 (some centres not stated)	0.95	1.03
CC(C)C[C@H]1C(=O)N2CCC[C@H]2[C@]2(O)O[C@](NC(=O)[C@@H]3C=C4c5cccc6[nH]cc(c56)C[C@H]4N(C)C3)(C(C)C)C(=O)N12	0.802	0.71
O=C(CCCN1CCC2(CC1)C(=O)NCN2c1ccccc1)c1ccc(F)cc1	1 and 1.01	0.89 and 0.822
CCCN(CCC)C1CCc2ccc(O)cc2C1 (racemic)	0.928	0.892
CN(C(=O)Cc1ccc(Cl)c(Cl)c1)[C@H](CN1CCCC1)c1cccc(N=C=S)c1	0.676	0.687
O=C(O)CF	1.08	1.08
CC(C)Oc1cccnc1N(C)C1CCN(Cc2ccccc2)CC1	1.02	0.839
CCN1C[C@]2(COC)CC[C@H](OC)[C@]34C5C[C@@H]6[C@@H](OC)C[C@@]7(OCO[C@@]7(C13)[C@@H](O)C24)C5[C@H]6OC (some centres not stated)	0.86	0.989
Fc1ccc(C(OCCN2CCN(C/C=C/c3ccccc3)CC2)c2ccc(F)cc2)cc1	0.615	0.609
O=[N+]([O-])O[C@H]1CO[C@H]2[C@@H]1OC[C@H]2O[N+](=O)[O-]	0.681	0.809
CC(C)(O)[C@@H]1[C@H]2OC(=O)[C@@H]1[C@]1(O)C[C@H]3O[C@]34C(=O)O[C@H]2[C@]14C	0.975	0.904
CC(C)(C#N)O[C@@H]1O[C@H](CO)[C@@H](O)[C@H](O)[C@H]1O	0.941	0.954
CC(=O)O[C@H]1C(=O)[C@@]2(C)[C@H]([C@H](OC(=O)c3ccccc3)[C@]3(O)C[C@H](O)C(C)=C1C3(C)C)[C@]1(OC(C)=O)CO[C@@H]1C[C@@H]2O	0.794	0.76
NC(Cc1cc(O)c(O)cc1O)C(=O)O (racemic)	1.04	0.853
CN1C[C@H](CO)C[C@@H]2c3cccc4[nH]cc(c34)C[C@H]21	1.09	1.08
c1cncc([C@@H]2CCCCN2)c1	0.924	0.933
C=C(C)[C@H]1Cc2c(ccc3c(=O)c4c(oc23)COc2cc(OC)c(OC)cc2-4)O1	1.03	0.927
CNC(C)C(O)c1ccccc1 (racemic)	0.939	0.955
O=c1[nH]oc2c1CCNC2	1.05 and 1.11	0.945 and 1.04
C=CCc1cc(OC)c2c(c1OC)OCO2	0.956	0.927
C[N+]1(C)CCc2cc3c(cc2[C@H]1[C@@H]1OC(=O)c2c1ccc1c2OCO1)OCO3	0.985	0.917

SMILES	PER2::LUC luminescence (time after treatment 24 h)	PER2::LUC luminescence (time after treatment 30 h)
Cc1nnc2n1-c1ccc(Cl)cc1C(c1ccccc1)=NC2	0.821	0.843
CCC(C)C(=O)OC1CC2(C)C(c3ccoc3)OC(=O)CC23OC2(C)OC34C(OC(=O)C(C)C)C3(O)C(OC(=O)C5(C)OC5C)C5(C)CC3(O)C(C)(C5CC(=O)OC)C14O2 (configuration not stated)	0.871	0.875
COc1ccc2c(c1O)-c1cccc3c1[C@@H](C2)N(C)CC3	1.14	0.994
COc1ccc2c3c1O[C@H]1[C@@H](O)C=C[C@H]4[C@@H](C2)NCC[C@@]341	1.04	0.958
CN1CC[C@@H]2CN3CCc4cccc(c43)[C@@H]2C1	1	0.913
O=C(O)C[S@@+]([O-])C(c1ccccc1)c1ccccc1	0.953	0.985
C[N+]1(C)[C@@H]2CC(OC(=O)[C@H](CO)c3ccccc3)C[C@H]1[C@@H]1O[C@@H]12 (single isomer, unassigned; (-))	0.886	0.736
NC(CCP(=O)(O)O)C(=O)O (configuration not stated)	0.982	0.979
C/C(=C/C=C/[C@@H](C)C(=O)O)[C@H]1CN[C@H](C(=O)O)[C@H]1CC(=O)O	1.07	0.96
CC[C@@H](CO)NC(=O)[C@@H]1C=C2c3cccc4[nH]cc(c34)C[C@H]2N(C)C1	0.926 and 0.546	0.958 and 0.857
CCC1(C2=NCCN2)Cc2ccccc2O1 (configuration not stated)	0.865 and 0.453	0.886 and 0.69
CCOC(=O)c1ncn2c1[C@@H]1CCCN1C(=O)c1cc(OC)ccc1-2	1.05	0.898
NC(N)=Nc1ccc2[nH]c3c(c2c1)C[C@@]1(O)[C@H]2Cc4ccc(O)c5c4[C@@]1(CCN2CC1CC1)[C@H]3O5	1.11	0.99
Cc1o[nH]c(=O)c1CC(N)C(=O)O (racemic)	0.875	0.984
CCCCOC(=O)c1ccccc1C(=O)OCCCC	1.05	0.983
CN1[C@@H]2CC[C@H]1C[C@@H](OC(=O)c1cc(Cl)cc(Cl)c1)C2	0.973 and 0.802	0.962 and 0.818
CNCCc1cnc[nH]1	1	1.05
O=C(O)C(Cl)Cl	0.978	0.974
CC(C)(C)c1cc(C=C(C#N)C#N)cc(C(C)(C)C)c1O	0.932	0.953
O=C(O)c1nn(Cc2ccc(Cl)cc2Cl)c2ccccc12	0.789	0.869
C[N+]12CC[C@@]34c5ccccc5N5C(=O)C[C@@H]6OCC=C(C1)[C@H](C[C@@H]32)[C@@H]6[C@H]54 (some centres not stated)	1.07	0.957
COc1ccc2c(c1OC)C(=O)O[C@@H]2[C@H]1c2cc3c(cc2CCN1C)OCO3	0.924	0.94

SMILES	PER2::LUC luminescence (time after treatment 24 h)	PER2::LUC luminescence (time after treatment 30 h)
Cc1cc(C(C#N)c2ccc(Cl)cc2)c(Cl)cc1NC(=O)c1cc(I)cc(I)c1O (configuration not stated)	0.834	0.753
O=[N+]([O-])c1ccc(O[C@@H]2O[C@H](CO)[C@@H](O)[C@H](O)[C@H]2F)c([N+](=O)[O-])c1	0.895	0.942
CCOC(=O)Nc1ccc(NCc2ccc(F)cc2)cc1N	1.07 and 1.15	0.94 and 1.03
C[C@@H]1C[C@@H]([C@H](O)CC2CC(=O)NC(=O)C2)C(=O)[C@@H](C)C1	0.248	0.245
COc1cc2c(cc1O)CCN[C@@H]2C	0.888	0.986
c1ccc2c(c1)OCC(C1=NCCN1)O2 (configuration not stated)	0.826 and 0.725	0.8 and 0.67
COc1cc2c(c3oc4cccc(O)c4c(=O)c13)[C@@H]1C=CO[C@@H]1O2	1.04	0.886
c1ccc(C2CNCc3ccccc32)cc1 (configuration not stated)	0.902	0.849
COc1ccc(CC2NCCc3cc(OC)c(OC)cc32)cc1OC (configuration not stated)	1.12	1.01
NC(C(=O)O)c1nn[nH]n1 (racemic)	0.996	1
CCCN(CCC)[C@H]1CCc2c(F)ccc(O)c2C1	1.04	0.935
c1ccc([C@@H]2C[C@H]2NC2CCNCC2)cc1	1	0.796
C[C@]12CC[C@@H](O)C[C@@H]1CC[C@@H]1[C@@H]2CC[C@]2(C)[C@@H](C(=O)CO)CC[C@@H]12	1.26	1.07
CC1=C2C(=CO[C@H](C)[C@H]2C)C(O)=C(C(=O)O)C1=O	0.923	0.903
CCC1(O)C(=O)OCc2c1cc1n(c2=O)Cc2cc3ccccc3nc2-1 (single isomer, unassigned; (+))	0.598	0.458
CCCN(CCC)C1CCc2cccc(O)c2C1 (racemic)	0.967	0.984
CC1C=CC=CCCC=CC=CC=CC=CC(OC2OC(C)C(O)C(N)C2O)CC2OC(O)(CC(O)C(O)CCC(O)CC(O)CC(O)CC(=O)OC(C)C(C)C1O)CC(O)C2C(=O)O (configuration not stated)	0.81	0.956
COC1=CC(=O)O[C@@H](/C=C/c2ccc3c(c2)OCO3)C1	0.149	0.152
C[C@@H]1C[C@H](O)[C@@]2(O)[C@]13CC(=O)OC[C@@]2(C)[C@@](C)(O)C(=O)C3	0.858	0.899
CC(=O)O[C@H]1CC[C@@]2(C)[C@H](CC[C@@H]3[C@@H]2CC[C@]2(C)[C@@H](C4=CC(=O)OC4)[C@@H](OC(C)=O)C[C@]32O)C1	0.717	0.748
